{"source": "patent US20200199647", "key": {"[1]": {"target": "R3A (human PPP1R3A amino acids 1-240, N-terminal MBP-tag, C-terminal His6-tag) (UniProt Q16821)", "sequence (Q16821 whole entry, looked up, the tested form may be a part)": "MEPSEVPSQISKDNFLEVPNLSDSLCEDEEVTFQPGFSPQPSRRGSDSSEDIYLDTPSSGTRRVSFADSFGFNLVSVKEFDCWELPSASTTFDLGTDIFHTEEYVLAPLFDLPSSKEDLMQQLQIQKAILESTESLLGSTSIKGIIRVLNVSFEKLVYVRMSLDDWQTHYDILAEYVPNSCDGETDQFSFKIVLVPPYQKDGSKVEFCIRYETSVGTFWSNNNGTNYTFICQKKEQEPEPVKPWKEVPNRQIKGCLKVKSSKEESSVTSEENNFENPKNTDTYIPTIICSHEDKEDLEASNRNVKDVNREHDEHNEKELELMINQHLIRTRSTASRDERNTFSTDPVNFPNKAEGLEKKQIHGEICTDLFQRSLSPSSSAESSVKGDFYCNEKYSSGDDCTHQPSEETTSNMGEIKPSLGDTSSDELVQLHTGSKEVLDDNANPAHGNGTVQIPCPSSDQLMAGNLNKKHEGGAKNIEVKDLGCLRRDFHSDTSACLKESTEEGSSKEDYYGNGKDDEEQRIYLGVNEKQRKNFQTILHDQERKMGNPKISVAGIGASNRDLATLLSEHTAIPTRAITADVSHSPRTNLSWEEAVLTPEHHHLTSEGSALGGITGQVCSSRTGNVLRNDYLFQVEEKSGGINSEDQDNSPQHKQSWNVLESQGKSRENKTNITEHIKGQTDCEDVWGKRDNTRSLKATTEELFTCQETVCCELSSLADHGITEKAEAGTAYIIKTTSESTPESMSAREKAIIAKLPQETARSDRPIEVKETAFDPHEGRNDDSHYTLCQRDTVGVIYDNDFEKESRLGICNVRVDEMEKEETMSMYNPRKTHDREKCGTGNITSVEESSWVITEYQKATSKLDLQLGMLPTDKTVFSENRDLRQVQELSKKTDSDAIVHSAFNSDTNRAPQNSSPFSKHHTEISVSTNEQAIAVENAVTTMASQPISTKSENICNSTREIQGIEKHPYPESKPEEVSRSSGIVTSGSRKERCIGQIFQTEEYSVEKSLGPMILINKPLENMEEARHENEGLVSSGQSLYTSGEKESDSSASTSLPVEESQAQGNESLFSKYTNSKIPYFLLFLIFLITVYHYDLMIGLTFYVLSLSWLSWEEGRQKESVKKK"}, "[2]": {"target": "R15A (human PPP1R15A amino acids 325-636, N-terminal MBP-tag, C-terminal His6-tag) (UniProt O75807)", "sequence (O75807 whole entry, looked up, stated change not applied, the tested form may be a part)": "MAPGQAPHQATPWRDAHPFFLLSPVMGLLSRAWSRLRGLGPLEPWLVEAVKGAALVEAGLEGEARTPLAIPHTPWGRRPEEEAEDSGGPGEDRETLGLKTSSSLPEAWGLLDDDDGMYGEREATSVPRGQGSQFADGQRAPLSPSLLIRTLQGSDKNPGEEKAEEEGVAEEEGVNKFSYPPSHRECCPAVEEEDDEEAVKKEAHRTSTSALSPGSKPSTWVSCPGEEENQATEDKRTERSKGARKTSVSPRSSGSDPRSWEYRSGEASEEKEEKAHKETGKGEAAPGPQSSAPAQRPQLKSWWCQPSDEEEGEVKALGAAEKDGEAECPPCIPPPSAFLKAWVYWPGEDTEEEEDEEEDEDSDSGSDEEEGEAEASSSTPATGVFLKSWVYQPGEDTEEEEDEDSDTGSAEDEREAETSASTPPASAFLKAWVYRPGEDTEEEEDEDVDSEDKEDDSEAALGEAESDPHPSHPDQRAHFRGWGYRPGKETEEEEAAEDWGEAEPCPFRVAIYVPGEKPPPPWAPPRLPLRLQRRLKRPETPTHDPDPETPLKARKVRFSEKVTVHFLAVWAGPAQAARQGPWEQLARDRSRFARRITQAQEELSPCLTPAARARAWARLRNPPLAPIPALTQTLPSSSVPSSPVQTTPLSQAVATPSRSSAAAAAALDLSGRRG"}, "[3]": {"target": "R15B (human PPP1R15B amino acids 340-698, N-terminal MBP-tag, C-terminal His6-tag) (UniProt Q5SWA1)", "sequence (Q5SWA1 other isoform, or with tags, fused parts or gaps)": "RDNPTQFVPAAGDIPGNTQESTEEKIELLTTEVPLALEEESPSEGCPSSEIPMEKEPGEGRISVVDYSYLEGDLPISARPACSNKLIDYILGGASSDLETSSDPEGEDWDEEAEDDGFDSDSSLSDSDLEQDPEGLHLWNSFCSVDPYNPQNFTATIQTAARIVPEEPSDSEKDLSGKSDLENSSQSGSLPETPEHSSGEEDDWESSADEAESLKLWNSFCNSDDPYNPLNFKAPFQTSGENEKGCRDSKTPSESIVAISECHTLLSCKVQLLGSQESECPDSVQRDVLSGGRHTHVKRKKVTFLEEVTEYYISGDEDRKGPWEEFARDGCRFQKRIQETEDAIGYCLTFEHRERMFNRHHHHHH"}}}
{"substance": "PP1c (human PP1cα […], N-terminal Thio6/His6 tag) (chain not printed)", "values": [{"measurement": "dephosphorylation of P-eIF2α (1 µM) by PP1c (1 µM), immunoblot", "setting": "[1]", "value": "R3A (glycogen-targeting subunit of protein phosphatase 1 (GM)), inhibited the dephosphorylation of eIF2α by PP1c"}, {"measurement": "dephosphorylation of P-eIF2α (1 µM) by PP1c (10 nM), immunoblot / Phos-tag gel", "setting": "[2]", "value": "Addition of R15A to a sub-stoichiometric concentration (10 nM) of PP1c enabled the complete dephosphorylation of eIF2α while PP1c (10 nM) alone had no effect"}, {"measurement": "dephosphorylation of P-eIF2α (1 µM) by PP1c (10 nM), immunoblot / Phos-tag gel", "setting": "[3]", "value": "addition of R15B, also converted the inactive PP1c (10 nM) into a proficient eIF2α phosphatase"}]}
